Results as given in the supplement of paper PMC9334596.
Several values for one entry are separate records, joined by “and”; a condition that tells them apart may be missing. Equal values may be shown once. Whole data set: some 5,300 compounds, median “PER2::LUC luminescence relative to vehicle control” near 0.96, cut for the highest 2% near 1.3. Some of the results follow.

System: mPer2Luc MEF
Experiment: PER2::LUC luminescence relative to vehicle control (fold of vehicle); higher = higher PER2::LUC reporter signal
Details: 10 µM
Method in brief: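 The reported values are PER2::LUC luminescence as fold of vehicle control in mouse embryonic fibroblasts carrying the mPer2Luc reporter. Cells were seeded at ~3000 per well in 384-well plates in DMEM with 10% FBS at 37 °C and 5% CO2, and compounds were added at 10 μM 48 h later. ONE-Glo luminescence was read 24 h and 30 h after treatment.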

SMILES | PER2::LUC luminescence (time after treatment 24 h) | PER2::LUC luminescence (time after treatment 30 h)
CO[C@H]1/C=C/O[C@@]2(C)Oc3c(C)c(O)c4c(c3C2=O)C2=NC3(CCN(CC(C)C)CC3)NC2=C(NC(=O)/C(C)=C\C=C\[C@H](C)[C@H](O)[C@@H](C)[C@@H](O)[C@@H](C)[C@H](OC(C)=O)[C@@H]1C)C4=O | 0.55 | 0.643
CCOc1cccc(C(=O)c2ccc(O)c(O)c2O)c1 | 1.23 | 1.37
CCN(CC)C(=O)[C@@]1(c2ccccc2)C[C@H]1CN | 0.96 | 0.98
NCCC[C@H](N)C(=O)O | 1.04 and 1.03 | 1.01 and 0.936
CO[C@@H]1[C@@H](O[C@@H]2O[C@H](C)[C@@H](O[C@H]3C[C@@](C)(O)[C@@H](O)[C@H](C)O3)[C@H](N(C)C)[C@H]2O)[C@@H](CC=O)C[C@@H](C)[C@@H](O[C@H]2CC[C@H](N(C)C)[C@@H](C)O2)/C=C/C=C/C[C@@H](C)OC(=O)C[C@H]1OC(C)=O | 0.784 | 0.682
N#Cc1ccccc1OCC(O)CNCCNC(=O)Nc1ccccc1 (stereo unspecified) | 1.04 | 0.956
CNc1nc(Nc2cnn([C@H]3CCN(C4COC4)C[C@@H]3F)c2Cl)ncc1C(F)(F)F | 0.862 | 0.769
NC(=O)N1c2ccccc2C=Cc2ccccc21 | 0.93 | 0.789
CCOC(=O)C1=C(C)NC(C)=C(C(=O)OCC)C1c1c(F)c(F)c(F)c(F)c1F | 1.17 | 1.26
COc1cccc(CNC(=O)Nc2nc(-c3ccncc3)cs2)c1 | 0.558 | 0.601
CC[C@@H](C)[C@@H](O)[C@H](C)C(=O)[C@H](C)/C=C(\C)C[C@H](C)[C@@H]1OC(=O)[C@H]1CC | 1.06 | 0.925
CN(C)CCN(Cc1cccs1)c1ccccn1 | 0.514 | 0.964
O=C(CCCCCCNC(=O)c1cnc(N(c2ccccc2)c2ccccc2)nc1)NO | 0.219 and 0.206 | 0.487 and 0.431
O=c1ncccn1[C@@H]1O[C@H](CO)[C@@H](O)[C@H]1O | 0.999 | 1.07
NC(CO)(CO)CO | 1.09 | 1.21
Clc1cccc(COc2cncc(N3CCNCC3)n2)c1 | 0.246 | 0.301
COc1ccc([C@H]2COc3c(ccc(O)c3OC)C2)c(OC)c1O | 1.08 | 0.987
COc1ccc2c(c1)OCc1c-2oc2cc(OC)ccc12 | 1.52 | 1.8
N=C1Sc2ccccc2C2=NCCCN12 | 0.898 | 0.971
O=C(NCc1ccccc1)OCCO | 0.967 | 1.06
COc1ccc(C(=O)CC2(O)C(=O)Nc3c(Cl)ccc(Cl)c32)cc1 (stereo unspecified) | 0.483 | 0.461
CCC(=O)N1CCN(C(=O)c2ccccc2)CC1 | 0.96 | 0.875
OC[C@H]1O[C@H]([S-])[C@H](O)[C@@H](O)[C@@H]1O.[Au+] | 0.943 | 0.96
